Measured values as given in article PMC7977449.
Read-outs that look alike come from different tables or passages of the source. No constants are given. Whether binding was seen depends on the method and setting. In cells and extracts the contact can be indirect. Some binding calls cover weakened binding; strength is not graded here. For some assays here: Tags and fused reporters may be left off the sequences shown.

Chains of the proteins cited; added tags and fusions are not shown.
UniProt P40763: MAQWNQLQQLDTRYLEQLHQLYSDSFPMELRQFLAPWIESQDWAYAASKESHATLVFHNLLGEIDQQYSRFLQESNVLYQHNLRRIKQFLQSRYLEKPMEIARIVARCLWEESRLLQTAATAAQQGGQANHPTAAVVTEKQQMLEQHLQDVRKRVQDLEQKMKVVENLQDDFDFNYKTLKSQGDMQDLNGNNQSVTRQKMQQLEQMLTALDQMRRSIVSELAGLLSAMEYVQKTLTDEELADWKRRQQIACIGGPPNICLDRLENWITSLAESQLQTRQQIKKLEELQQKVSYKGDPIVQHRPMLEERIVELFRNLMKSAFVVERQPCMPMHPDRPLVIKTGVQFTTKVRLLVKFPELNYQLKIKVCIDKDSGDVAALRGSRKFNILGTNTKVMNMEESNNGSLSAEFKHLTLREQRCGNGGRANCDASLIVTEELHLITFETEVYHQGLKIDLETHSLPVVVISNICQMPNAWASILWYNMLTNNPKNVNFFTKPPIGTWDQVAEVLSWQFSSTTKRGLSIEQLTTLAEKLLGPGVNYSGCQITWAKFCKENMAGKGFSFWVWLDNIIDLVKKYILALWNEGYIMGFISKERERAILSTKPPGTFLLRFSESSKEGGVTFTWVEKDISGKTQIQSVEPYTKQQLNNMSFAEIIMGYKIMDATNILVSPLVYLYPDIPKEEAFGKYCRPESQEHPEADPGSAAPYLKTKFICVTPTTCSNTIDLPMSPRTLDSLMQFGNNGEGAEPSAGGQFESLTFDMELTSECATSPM
UniProt P42224: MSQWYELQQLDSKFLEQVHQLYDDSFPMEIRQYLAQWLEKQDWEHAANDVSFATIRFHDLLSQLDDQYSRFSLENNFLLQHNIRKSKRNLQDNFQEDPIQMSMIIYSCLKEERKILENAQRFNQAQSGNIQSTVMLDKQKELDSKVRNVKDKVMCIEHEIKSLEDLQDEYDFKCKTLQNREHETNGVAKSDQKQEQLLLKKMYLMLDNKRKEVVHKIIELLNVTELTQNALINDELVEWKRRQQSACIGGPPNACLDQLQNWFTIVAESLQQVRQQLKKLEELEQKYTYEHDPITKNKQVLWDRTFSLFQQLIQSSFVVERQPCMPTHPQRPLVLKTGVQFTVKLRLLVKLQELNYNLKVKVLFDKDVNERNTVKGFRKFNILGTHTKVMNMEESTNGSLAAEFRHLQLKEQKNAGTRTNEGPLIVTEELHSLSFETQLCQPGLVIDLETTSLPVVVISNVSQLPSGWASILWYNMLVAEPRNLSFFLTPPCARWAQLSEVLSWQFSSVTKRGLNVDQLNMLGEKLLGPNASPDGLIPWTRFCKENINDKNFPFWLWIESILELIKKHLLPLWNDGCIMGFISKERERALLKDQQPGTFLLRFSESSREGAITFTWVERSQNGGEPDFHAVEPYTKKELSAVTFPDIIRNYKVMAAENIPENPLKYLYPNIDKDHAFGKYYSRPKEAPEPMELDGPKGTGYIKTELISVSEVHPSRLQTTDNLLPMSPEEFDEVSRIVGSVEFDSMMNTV

Tests used:
STAT3-Flag [1] = biological target: STAT3-Flag (UniProt P40763); experiment: co-IP; HEK293T cells transfected with myc- and Flag-tagged plasmids; lysate immunoprecipitated with anti-myc or anti-Flag antibody, protein A/G agarose, western blot
myc-NLRC5 full length = myc-NLRC5 full length (UniProt Q86WI3); experiment: as above
[2] = biological target: STAT1, endogenous in HUVECs (human (endogenous in HUVECs)) (UniProt P42224); experiment: condition: only HUVECs treated with VEGFA-165 instead of IFN-γ; co-IP; HUVECs stimulated with VEGFA-165 for 12 h; lysate immunoprecipitated with anti-STAT1 antibody, western blot
[3] = biological target: STAT1, endogenous in HUVECs (human (endogenous in HUVECs)) (UniProt P42224); experiment: co-IP; HUVECs stimulated with IFN-γ for 12 h; lysate immunoprecipitated with anti-STAT1 antibody, western blot
[4] = biological target: signal transducer and activator of transcription 3 (STAT3), endogenous in HUVECs (human (endogenous in HUVECs)) (UniProt P40763); experiment: co-IP; HUVECs stimulated with VEGFA-165 for 0 or 12 h; lysate immunoprecipitated with anti-STAT3 antibody, protein A/G agarose, western blot
STAT3-Flag [5] = biological target: STAT3-Flag (UniProt P40763); experiment: co-IP; HEK293T cells transfected with myc- and Flag-tagged plasmids; lysate immunoprecipitated with anti-myc or anti-Flag antibody, protein A/G agarose, western blot; remark: listed apart in the source

In the case of “myc-NLRC5 full length (from UniProt Q86WI3 1-1866)”, the binding (STAT3-Flag [1]) is reported as “binds”.

With Flag-STAT1 (from UniProt P42224 1-750) the binding (myc-NLRC5 full length) was “binds”.

In the case of “NLR family CARD domain containing 5 (NLRC5), endogenous in HUVECs (from UniProt Q86WI3 1-1866)”, the binding [2] is reported as “no binding”, the binding [3] is reported as “binds” and the binding [4] is reported as “binds”.

B1: myc-NLRC5 DD+NACHT (1-539 aa) (domain or fragment, UniProt Q86WI3 1-539)
chain: MDPVGLQLGNKNLWSCLVRLLTKDPEWLNAKMKFFLPNTDLDSRNETLDPEQRVILQLNKLHVQGSDTWQSFIHCVCMQLEVPLDLEVLLLSTFGYDDGFTSQLGAEGKSQPESQLHHGLKRPHQSCGSSPRRKQCKKQQLELAKKYLQLLRTSAQQRYRSQIPGSGQPHAFHQVYVPPILRRATASLDTPEGAIMGDVKVEDGADVSISDLFNTRVNKGPRVTVLLGKAGMGKTTLAHRLCQKWAEGHLNCFQALFLFEFRQLNLITRFLTPSELLFDLYLSPESDHDTVFQYLEKNADQVLLIFDGLDEALQPMGPDGPGPVLTLFSHLCNGTLLPGCRVMATSRPGKLPACLPAEAAMVHMLGFDGPRVEEYVNHFFSAQPSREGALVELQTNGRLRSLCAVPALCQVACLCLHHLLPDHAPGQSVALLPNMTQLYMQMVLALSPPGHLPTSSLLDLGEVALRGLETGKVIFYAKDIAPPLIAFGATHSLLTSFCVCTGPGHQQTGYAFTHLSLQEFLAALHLMASPKVNKDTLTQ
For B1, the binding (STAT3-Flag [5]) was “binds”.

B2: myc-NLRC5 DD (1-221 aa) (domain or fragment, UniProt Q86WI3 1-221)
chain: MDPVGLQLGNKNLWSCLVRLLTKDPEWLNAKMKFFLPNTDLDSRNETLDPEQRVILQLNKLHVQGSDTWQSFIHCVCMQLEVPLDLEVLLLSTFGYDDGFTSQLGAEGKSQPESQLHHGLKRPHQSCGSSPRRKQCKKQQLELAKKYLQLLRTSAQQRYRSQIPGSGQPHAFHQVYVPPILRRATASLDTPEGAIMGDVKVEDGADVSISDLFNTRVNKGP
B2 was tested, and the binding (STAT3-Flag [5]) was “no binding”.

B3: myc-NLRC5 NACHT (222-539 aa) (domain or fragment, UniProt Q86WI3 222-539)
chain: RVTVLLGKAGMGKTTLAHRLCQKWAEGHLNCFQALFLFEFRQLNLITRFLTPSELLFDLYLSPESDHDTVFQYLEKNADQVLLIFDGLDEALQPMGPDGPGPVLTLFSHLCNGTLLPGCRVMATSRPGKLPACLPAEAAMVHMLGFDGPRVEEYVNHFFSAQPSREGALVELQTNGRLRSLCAVPALCQVACLCLHHLLPDHAPGQSVALLPNMTQLYMQMVLALSPPGHLPTSSLLDLGEVALRGLETGKVIFYAKDIAPPLIAFGATHSLLTSFCVCTGPGHQQTGYAFTHLSLQEFLAALHLMASPKVNKDTLTQ
For B3, the binding (STAT3-Flag [5]) was “no binding”.
